B1: CPEB3 Ribozyme (parent)
chain: UAACAGGGGGCCACAGCAGAAGCGUUCACGUCGCAGCCCCUGUCAGAUUCUGGUGAAUCUGCGAAUUCUGCUGUAUAUCUC

The source gives no read counts; variants with many changes may rest on few reads.

In the data set the parent is B1. Kind of data set: self-cleavage, relative activity (ratio to wild type); higher = more cleavage; in vitro, sequencing. The method in brief:
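Barcoded CPEB3 ribozyme mutants, produced by rounds of error-prone PCR, self-cleaved while being transcribed with T7 RNA polymerase for 5 hours at 37°C and during a subsequent 15 min DNase I step before EDTA was added. Sequencing of template-switched cDNA on Illumina gave cleaved and total reads, and DNA sequencing assigned barcodes to variants. Each variant's relative activity is its cleaved/total read fraction divided by the unmutated ribozyme's fraction, averaged across three batches. A variant needed a minimum of 5 reads.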
Take GAACUGGGGGCCACAGCAGGAGCGUUCAUGUCGCAGCCCCUGUCAGAUUCUGGUGAAUCUGCGAAUUCUGCUGUACGUCUC [U1G A5U A20G C29U U76C A77G]: the self-cleavage is 0.55.

Take CAACAGGGGGCCACAGCAGAAGCGUUCACGUCGCAGCCCCUGUCAGAUUCAGGUGAACCUGCGAAUUCUGCUGUAUAACUC [U1C U51A U58C U78A]: the self-cleavage is 0.17.

Turning to CAACAGGGGGCCACAGCAGAAGCGUUCACGUCGCAGCCCCCGUCAGAUUCUGGUGAAUCUGUGAAUUCUGCUGUAUAUCUC [U1C U41C C62U], the self-cleavage turned out to be 0.23.

As for GUACAGGGGGCCACAGCAGAAGCGUUCACGUCGCAGCCCCUGUCAGAUUCUGGUGAAUCAGCGAAUUCUGCUGUACAUCUC [U1G A2U U60A U76C], the self-cleavage is 0.22.

For the variant CAACAGGGGGCCACAGCAGAAGCGUUCACGUCGCAGCCCCUGUCAGAUUCUGGUGAAUCUGCGAACUCUGCCGUAUAUCUC [U1C U66C U72C], the self-cleavage was 0.34.

Consider CAACAGGGGGCCACAGCAGAAGCGUUCACGUCGCAGCCCCUGUCAGAUUCAGGUGAAUCUGCGAAUUCUGCUGUGUAUCUC [U1C U51A A75G], for which the self-cleavage was found to be 0.57.

Consider CAACAGGGGGCCACAGCAGAAGCGUUCACGUCGCAGCCCCUGUCAGAUUCCGGUGAAUCCGCGAAUUCUGCUGUAUAUCUC [U1C U51C U60C], for which the self-cleavage amounted to 0.27.

Take CAACAGGGGGCCACAGCAGAAGCGUUCACGUCGCAGCCCCUGUCAGAUUCUGGUGAACCUGCGGAUUCUGCUGUAUAUCUC [U1C U58C A64G]: the self-cleavage is 0.38.

Consider GGACAGGGGGCCACAGCAGAAGCGUUCACGUCGCAGCUCUUGUCAGAUUCUGGUGAAUCUGCGAAUUCUGCGGUAAAUCUC [U1G A2G C38U C40U U72G U76A], for which the self-cleavage turned out to be 0.3.

For CAACAGGGGGCCACAGCAGAAGCGUUCACGUCGCAGCCCCUGUCAGAUUCUGGUGAAUCUGCGAACUCUGCUGUAUAUCCC [U1C U66C U80C], the self-cleavage was 0.46.

For the variant CAACAGGGGGCCACAGCAGAAGCGUUCACGUCGCAGCCCCUGUCAGAUUCUGGUGAAUCAGCGAAUUCUGCCGUAUAUCUC [U1C U60A U72C], the self-cleavage is 0.39.

Turning to CAACAGGGGGCCACAGCAGAAGCGUUCACGUCGCAGCCCCUGGCAGAUUCUGGUGAGUCUGCGGAUUCUGCUGUAUAUCUC [U1C U43G A57G A64G], the self-cleavage amounted to 0.19.

Regarding CAACAGGGGGCCACAGCAGAAGCGUUCACGUCGCAGCCCCUGUCAGAUUCUGGUGAAUCAGCGAAUUCAGCCGUAUAUCUC [U1C U60A U69A U72C], the self-cleavage was 0.19.

On to CAACAGGGGGCCACAGCAGAAGCGUUCACGUCGCAGCCCCUGGCCGAUUCUGGUGAUGCUGCGAAUUCCGCUGUAUAUCUC [U1C U43G A45C A57U U58G U69C], for which the self-cleavage was determined as 0.07.

For the variant GGACAGGGGGCCACAGCAGAAGCGUUCACGUCGCAGCCCCUGUCAGAUUCUGGAGAAUCUGCGAACUCUGCUGUAUAACUC [U1G A2G U54A U66C U78A], the self-cleavage amounted to 0.32.

Consider CAACAGGGGGCCACAGCAGAAGCGUUCACGUCGCAGCCCCUGUCAGAAUCUGGUGUAUCUGCGAAUUCUGCUGUAUAUCUC [U1C U48A A56U], for which the self-cleavage came out at 0.45.

For the variant CAACAGGGGGCCACAGCAGAAGCGUUCACGUCGCAGCCCCUGCCAGAUUCUGGUGAAUCUGCGAAUACUGCUGUAUAUCUC [U1C U43C U67A], the self-cleavage is 0.1.

For GGACAGGGGGCCAAAGCGGAAGCGUUCACGUCGCAGCCCCUGUCAGAUUCUGGUGAAUCUGCGAACUCUGCUGUAUAUCUC [U1G A2G C14A A18G U66C], the self-cleavage turned out to be 0.03.

GAACAGGGGGCCACGGCAGAAGCGUCCACGUCGCAGCCCCUGUCAGAUUCUGGUGAAUCUGCGAAUUCUGCUGUAUAUCUC [U1G A15G U26C]: the self-cleavage was 0.46.

As to GAACAGGGGGCCACAGCUGAAGCGUUCACGUCGCAGCCCCUGUCAGAUUCUGGUGAAUCUGCGGAUUCUGCUGUAUACCUC [U1G A18U A64G U78C], the self-cleavage was found to be 0.18.

In the case of CAACAGGGGGCCACAGCAGAAGCGUUCACGUCGCAGCCCCCGCCAGAUUCUGGUGAAUCUGCGAAUUCUGCUGUAUACCUC [U1C U41C U43C U78C], the self-cleavage was 0.26.

As for GAACAGGGGGCUACAGCGGAAGCGUUCACGUCGCAGCUCCUGUCAGAUUCUGGUGAAUCUGCGAAUUCUGCUGUAUAUCUC [U1G C12U A18G C38U], the self-cleavage is 0.67.

With CAACAGGGGGCCACAGCAGAAGCGUUCACGUCGCAGCCCCUGUCAGAUUCAGGUGAAUCCGCGAAUUCUGCUGUAUAUCUC [U1C U51A U60C], the self-cleavage was 0.52.

On to GAUCUGGGGGCCACAGCAGAGGCGCUCACGUCGCAGCCCCUGUCAGAUUCUGGUGGAUCUGCGAAUUCUGCUGUAUAUCUC [U1G A3U A5U A21G U25C A56G], for which the self-cleavage was 0.21.

Regarding CAACAGGGGGCCACAGCAGAAGCGUUCACGUCGCAGCCCCUGUCAGAUUCUGGUGAAUCUGCGAAUGCUGCCGAAUAUCUC [U1C U67G U72C U74A], the self-cleavage is 0.18.

With CAACAGGGGGCCACAGCAGAAGCGUUCACGUCGCAGCCCCUGUCAGAUUCCGGUGAAUCUGCGAAUUCUGCUGUAUAUCCC [U1C U51C U80C], the self-cleavage is 0.88.

As for CAACAGGGGGCCACAGCAGAAGCGUUCACGUCGCAGCCCCUGUCAGACUCUGGUGAAUCUGCGAAUUCUGCUGUAUAUCCC [U1C U48C U80C], the self-cleavage was found to be 0.27.

Regarding CAACAGGGGGCCACAGCAGAAGCGUUCACGUCGCAGCCCCUGUCAGAUUCUGGCGAAUCUGCGAAUUCUGCAGUAUAUCUC [U1C U54C U72A], the self-cleavage was found to be 0.84.

With CAACAGGGGGCCACAGCAGAAGCGUUCACGUCGCAGCCCCCGUCAGAUUCUGGUGAAUCUGCGAGUUCUGCCGUAUAUUUC [U1C U41C A65G U72C C79U], the self-cleavage was 0.37.

As for CAACAGGGGGCCACAGCAGAAGCGUUCACGUCGCAGCCCCUGUCAGAUUCUGGUGAAUCCGCGAUUUCUGCUGUAUAUCUC [U1C U60C A65U], the self-cleavage came to 0.2.

On to CAACAGGGGGCCACAGCAGAAGCGUUCACGUCGCAGCCCCUGUCAGAUUCUGGUGAAUCUGCGAAUUCCGCAGUAUAUCCC [U1C U69C U72A U80C], for which the self-cleavage turned out to be 0.48.

Regarding GAACAGGGGGCCACAGCAGGGGCGUUCACGUCGCAGCCCCUGUCAGAUUCUGGUGAAUCUGCGAAUUCUGCUGUAUAUCUC [U1G A20G A21G], the self-cleavage is 0.16.

As to CAACAGGGGGCCACAGCAGAAGCGUUCACGUCGCAGCCCCUGACUGAUUCUGGUGCAUCUGCGAAUCCUGCUGUAUAUCUC [U1C U43A A45U A56C U67C], the self-cleavage came to 0.15.

Consider CAACAGGGGGCCACAGCAGAAGCGUUCACGUCGCAGCCCCUGUCAGAUUCCGGCGAAUCUGCGAAUUCUGCUGUAUAUCUC [U1C U51C U54C], for which the self-cleavage is 1.04.

The record behind these values is the RNAGym collection of RNA variant scans (doi:10.1093/nar/gkz1192).
